Assay [1] addresses T1, IL-2/15R β and γ on Mo7e cells (UniProt P14784 27-551; P31785 23-369, limits assumed).
T1 sequence (looked up) 1: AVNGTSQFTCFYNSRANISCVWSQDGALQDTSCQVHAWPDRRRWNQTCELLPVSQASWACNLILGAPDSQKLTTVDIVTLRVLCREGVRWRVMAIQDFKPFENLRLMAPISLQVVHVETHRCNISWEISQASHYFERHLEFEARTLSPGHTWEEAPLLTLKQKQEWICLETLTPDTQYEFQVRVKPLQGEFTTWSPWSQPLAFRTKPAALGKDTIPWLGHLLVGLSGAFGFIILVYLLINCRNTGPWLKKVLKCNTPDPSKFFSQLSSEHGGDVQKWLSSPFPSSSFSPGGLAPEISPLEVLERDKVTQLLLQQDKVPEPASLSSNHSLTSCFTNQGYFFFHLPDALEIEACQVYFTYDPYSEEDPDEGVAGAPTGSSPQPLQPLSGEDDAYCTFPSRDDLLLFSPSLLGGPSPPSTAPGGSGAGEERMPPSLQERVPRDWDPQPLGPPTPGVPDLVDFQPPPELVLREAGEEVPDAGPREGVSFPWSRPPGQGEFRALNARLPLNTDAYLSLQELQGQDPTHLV
T1 sequence (looked up) 2: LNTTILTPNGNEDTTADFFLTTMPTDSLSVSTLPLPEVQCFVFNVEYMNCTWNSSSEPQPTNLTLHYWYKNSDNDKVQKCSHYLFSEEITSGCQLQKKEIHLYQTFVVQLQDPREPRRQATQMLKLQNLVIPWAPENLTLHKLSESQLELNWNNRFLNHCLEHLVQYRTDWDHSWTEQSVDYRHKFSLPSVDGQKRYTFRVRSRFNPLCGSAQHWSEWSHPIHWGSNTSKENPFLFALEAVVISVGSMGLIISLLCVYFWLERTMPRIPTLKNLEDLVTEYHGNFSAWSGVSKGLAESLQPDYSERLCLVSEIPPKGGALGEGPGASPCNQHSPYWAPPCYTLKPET
Briefly: cell-based or functional assay.

Another assay addresses T2, IL2/15Rβ-Fc/Fc (UniProt P14784 27-240).
T2 construct: Made in-house; The label 'Fc/Fc' is not explained; it is read here as one receptor-Fc chain paired with an Fc-only chain; also called IL2Rβ; CD122; not shown: Fc; second Fc chain implied by the label 'Fc/Fc'
The assay is described as follows: BLI (Octet RED96), receptor immobilised on sensor. The method, then: (§1) BLI was used to determine the affinity of a target protein for a receptor by a method with reference to (Estep, P et al., High throughput solution Based measurement of antibody-antigen affinity and epitope binning. MAbs, 2013.5 (2): p. 270-8). The receptor proteins IL-15Rα-his, IL2Rα-his, and IL2/15Rβ-Fc/Fc used in the experiment were each produced by the company of the present application, and both an IL-2 derivative without IL2Rα binding and an IL-2 complex without IL2Rα binding were prepared according to the description in Patent Publication CN111018961A. An IL-15(N72D)/Sushi-hIgG1Fc complex was prepared according to the literature (K.-p. Han et al./Cytokine 56 (2011) 804-810). A buffer was prepared according to the following formula: 10 mM HEPES, 150 mM NaCl, 3 mM EDTA, 0.1% BSA, and 0.05% tween20. Receptor proteins were each pre-immobilized in advance on a corresponding sensor. Then the steps of baseline, loading, baseline, association, and dissociation were conducted according to the established method (see Estep, P et al., High throughput solution Based measurement of antibody-antigen affinity and epitope binning. MAbs, 2013. 5 (2): p. 270-8). Data acquisition and analysis were conducted using the Fortebio Octet RED96 software Data acquisition 11.0 and Data analysis 11.0, respectively. Results are shown in Table 1 (the smaller the value, the stronger the affinity).
A general note: BLI is a label-free optical method that tracks binding on a fibre tip over time.

For another assay, the target named is T3, IL2Rα-his (UniProt P01589 22-240, limits assumed).
T3 construct: Made in-house; also called interleukin-2 receptor alpha; CD25; not shown: his tag
T3 sequence (looked up): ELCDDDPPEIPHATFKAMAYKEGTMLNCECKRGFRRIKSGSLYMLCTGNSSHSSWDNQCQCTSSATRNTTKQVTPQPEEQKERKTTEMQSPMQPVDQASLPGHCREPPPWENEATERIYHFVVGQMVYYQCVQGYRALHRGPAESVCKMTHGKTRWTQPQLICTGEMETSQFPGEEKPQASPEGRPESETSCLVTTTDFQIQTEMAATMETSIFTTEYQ
Briefly: BLI (Octet RED96), receptor immobilised on sensor. As for the experimental part: as §1

The target in another assay is T4, IL-15Rα-his (Homo sapiens (Human), UniProt Q13261 31-205, limits assumed).
T4 construct: also called interleukin-15 receptor alpha; not shown: his tag
The assay is described as follows: BLI (Octet RED96), receptor immobilised on sensor. The method, then: as §1

B1: Complex 2 (heterodimer complex of IL-2/15 chimera 1 and Sushi-hIgG4Fc) (Fc fusion)
chain 1: APTSSSTKKTQLQLEHLLLDLQMILNGIQSMHIDATLYTESDVHPSCKVTAMKCFLLELQVISLESGDASIHDTVENLIILANNSLSSNGNVTESGCKECEELEEKNIVEFLNRFITFAQSIISTLT
chain 2: ITCPPPMSVEHADIWVKSYSLYSRERYICNSGFKRKAGTSSLTECVLNKATNVAHWTTPSLKCIR[no letters for human IgG4 Fc with S228P (EU numbers)]
notes: also called IL-2/15 chimera 1-Sushi-Fc
With B1, the “EC50 (nM), promotion of Mo7e cell proliferation” value in assay [1] stood at 0.329 nM. Besides, the dissociation constant (Kd) (commonly the equilibrium constant for the complex coming apart) in the assay with IL2/15Rβ-Fc/Fc was 0.654 nM. Besides, the binding result with IL2Rα-his and in the assay with IL-15Rα-his was “no binding (tested: 100 nM)” in each case.

B2: Complex 1 (heterodimer complex of IL-2/15 chimera 1 and Sushi-hIgG1Fc) (Fc fusion)
chain 1: B1 chain 1
chain 2: ITCPPPMSVEHADIWVKSYSLYSRERYICNSGFKRKAGTSSLTECVLNKATNVAHWTTPSLKCIR[no letters for human IgG1 Fc]
notes: as for B1
With B2, binding with IL2/15Rβ-Fc/Fc was put at a Kd of 0.337 nM. For the same molecule, the binding result in the assay with IL2Rα-his and in the assay with IL-15Rα-his was “no binding (tested: 100 nM)” each time.

B3: IL-15(N72D)/Sushi-hIgG1Fc complex (Fc fusion)
chain 1: [no letters for about 120 residues]
chain 2: B2 chain 2
notes: Prepared according to the literature (Han et al., Cytokine 56 (2011) 804-810); The literature construct may differ
As to B3, in assay [1], the “EC50 (nM), promotion of Mo7e cell proliferation” value stood at 0.09 nM. Also, the Kd with IL2/15Rβ-Fc/Fc came out at 0.0556 nM. The binding result with IL2Rα-his and with IL-15Rα-his was “no binding (tested: 100 nM)” each time.

The values are drawn from patent US20230416326A1 (LETO LABORATORIES, published 2023).
